SMILES strings stand for the structures. Screen size: about 48,000 compounds; about 550 (1.1%) were called active. Inconclusive results (about 4%) are left out. No stated cut-off is given here; in the data, active means potency below about 15 µM; inconclusive means mostly about 16 µM to 33 µM; inactive means weaker than that. This is one part of the list.

From PubChem BioAssay AID360 (National Center for Advancing Translational Sciences (NCATS), 2006) come the findings set out here.
Potency means the concentration at half of the fitted maximal effect.

This test deals with Lysosomal acid glucosylceramidase (Homo sapiens) (UniProt P04062). The test is described as follows: Glucocerebrosidase.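 Further: the screen sought inhibitors.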 To be noted: purified enzyme, resorufin glucoside fluorescence (screen aimed at inhibitors), 20 min; series mostly up to 77 µM. The source says: NCGC Assay Overview: Beta-glucocerebrosidase catalyzes the hydrolysis of beta-glucocerebroside to glucose and ceramide. The inherited deficiency of beta-glucocerebrosidase results in Gaucher disease, which is characterized by a wide variety of symptoms including hepatosplenomegaly, anemia, thrombocytopenia, bony lesions and bone marrow infiltration with characteristic storage cells, known as Gaucher cells. There are also forms of the disorder affecting the central nervous system. Patients with the same genotypes can manifest with diverse clinical presentations and it is believed that improper folding and trafficking of beta-glucocerbrosidase may contribute to the phenotypes observed. Low molecular weight molecules, acting as chaperones, may potentially restore trafficking of misfolded beta-glucocerebrosidase from the endoplasmic reticulum to the lysosomes, thereby enhancing functional lysosomal beta-glucocerebrosidase activity. Using normal beta-glucocerebrosidase, an assay was developed to screen for small molecule inhibitors that could potentially act as molecular chaperones on the mutant forms [developed with NIH investigator Dr. Ellen Sidransky's laboratory]. Two pro-fluorescent substrates were chosen for two screens against a small molecule library. One beta-glucocerebrosidase assay used Resorufin beta-D-Glucopyranoside (Marker Gene Technology Inc.), generating a red fluorescent product. The second assay used Fluorescein di-beta-D-Glucopyranoside, generating a blue fluorescent product. […] The IC50 values of Conduritol B Epoxide, a known glucocerebrosidase inhibitor, were determined to be 87.5 uM and 117 uM, respectively. The use of two difference pro-fluorescent substrates in the screens helped to eliminate false positives. All compounds were screened in a titration series resulting in AC50s (e.g., IC50s or EC50s).
Sequence of UniProt P04062 (P04062 whole entry, looked up): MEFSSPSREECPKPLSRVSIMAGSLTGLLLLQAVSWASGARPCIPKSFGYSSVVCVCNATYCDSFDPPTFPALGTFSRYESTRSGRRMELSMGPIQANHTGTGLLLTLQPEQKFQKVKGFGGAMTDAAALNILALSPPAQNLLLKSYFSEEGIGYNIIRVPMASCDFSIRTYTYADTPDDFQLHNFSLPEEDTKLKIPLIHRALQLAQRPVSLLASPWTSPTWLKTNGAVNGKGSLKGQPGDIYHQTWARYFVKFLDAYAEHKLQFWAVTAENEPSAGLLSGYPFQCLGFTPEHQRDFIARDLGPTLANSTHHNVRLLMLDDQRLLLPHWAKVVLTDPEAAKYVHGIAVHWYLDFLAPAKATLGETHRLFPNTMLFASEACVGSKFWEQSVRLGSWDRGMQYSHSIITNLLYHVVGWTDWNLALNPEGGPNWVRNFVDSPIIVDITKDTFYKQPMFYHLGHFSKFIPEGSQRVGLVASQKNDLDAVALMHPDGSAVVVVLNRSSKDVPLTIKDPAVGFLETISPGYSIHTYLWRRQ
NCGC Assay Protocol Summary: Both enzyme and substrate were diluted in buffer composed of 50mM citric acid/KH2PO4, 10mM sodium taurocholate and 0.01% tween-20 at pH 5.9. The final concentration of the enzyme was 0.2 nM in both assays. The compound library was titrated in 7 to 15 concentrations for the primary screens with a final concentration ranging from 0.6 nM to 50 uM. This particular assay protocol is for the "red" substrate, and it was performed in 1536-well plate format as follows: Red fluorescence substrate assay: 2 uL enzyme 23 nL compound 1 uL substrate (final concentration of 30 uM) Incubate at room temperature (RT) for 20 minutes Read the plate in Viewlux plate reader (Ex=548(7) and Em=600(10)).
As to `C=CCN(C(=O)Cn1c(C(=O)OC)cc2oc(C)cc21)c1ccccc1`, the Potency entry was “inactive”.
In the case of `O=c1[nH]c(SCC2CCCCO2)nc2ccccc12` (stereo not given), the Potency is inactive: > 76.9 µM.
Turning to `OC(CN1CCOCC1)Cn1c(-c2cccc(Cl)c2)nc2ccccc21` (stereo not given), the Potency is inactive: > 76.9 µM.
Regarding `CC(=O)Nc1ccc(NC(=O)c2cccc(C(=O)OC(C)C)n2)cc1`, the Potency was inactive: > 76.9 µM.
Consider `COC(=O)c1cnn2c3c(c(C)nc12)CCCC3`, for which the Potency was inactive: > 76.9 µM.
With `CCc1cc(C(=O)OC)c(NC(=O)CCC(=O)O)s1`, the Potency is inactive: > 76.9 µM.
For `Cc1nnc(SCC(=O)N2CCN(Cc3ccccc3)CC2)s1`, the Potency was inactive: > 76.9 µM.
The value for `Cc1ccc(C(C)n2cc(C(=O)NCc3cccnc3)nn2)cc1` (stereo not given) was inactive: > 76.9 µM; that for `C=CCn1c(SCC(=O)Nc2nc3ccccc3s2)nnc1-c1ccccc1O` was inactive: > 76.9 µM; that for `CC(OC(=O)C1CCCO1)C(=O)NC1CCCC1` (stereo not given) was inactive: > 76.9 µM.
As to `Cc1cc(C)nc(SC(C)C(=O)Nc2ccc(S(N)(=O)=O)cc2)n1` (stereo not given), the Potency was inactive: > 76.9 µM.
Turning to `COc1ccc(CNC(=O)C(C)NC(=O)c2cc3ccccc3o2)cc1` (stereo not given), the Potency is inactive: > 76.9 µM.
Consider `CCCc1cc(=O)n2[nH]c(NCc3ccccc3Cl)nc2n1`, for which the Potency was inactive: > 76.9 µM.
Regarding `COC(=O)CCNc1ccc2c(c1)OCCO2`, the Potency is inactive: > 76.9 µM.
`Cc1nn(CC(=O)NCc2cccnc2)c(=O)c2ccccc12`: the Potency was inactive: > 76.9 µM.
As to `O=C1Nc2ccccc2C(O)(C(=O)NCc2ccco2)N1c1ccc(Cl)cc1` (stereo not given), the Potency is inactive: > 76.9 µM.
For `CCCOc1ccc(CN(CCO)CCO)cc1C(=O)OC`, the Potency is inactive: > 76.9 µM.
Consider `O=C1C(C=NCCCN2CCCC2=O)=C(O)c2ccccc21`, for which the Potency was inactive: > 76.9 µM.
Turning to `O=C(CSc1nnc(-c2ccccc2)o1)c1ccc2c(c1)OCCO2`, the Potency was inactive: > 76.9 µM.
Turning to `COc1ccc(OC)c(NC(=O)CSc2nnc(CNC(=O)COc3ccc(Cl)cc3)o2)c1`, the Potency was inactive: > 76.9 µM.
In the case of `CC(=O)Nc1c(O)n(C)c2ccccc12`, the Potency is inactive: > 76.9 µM.
Turning to `COCCCNC(=O)c1ccc2c(c1)OCO2`, the Potency is inactive: > 76.9 µM.
On to `COc1cc2cc(CN(Cc3cccnc3)C(=O)NCc3ccccc3)c(=O)[nH]c2cc1OC`, for which the Potency was inactive: > 76.9 µM.
With `O=C(CCC(=O)N1CCCC1)Nc1nnc(C2CCCCC2)s1`, the Potency is inactive: > 76.9 µM.
As for `Cn1c(NC(=O)c2ccco2)c(-c2ccccc2)c(=O)c2ccccc21`, the Potency was inactive: > 76.9 µM.
In the case of `O=C(O)C1CC=CCC1C(=O)Nc1ccccc1Cl` (stereo not given), the Potency was inactive: > 76.9 µM.
As for `Cc1ccc2nc(-c3cccc(NC(=O)c4ccco4)c3)[nH]c2c1`, the Potency is inactive: > 76.9 µM.
`Clc1ccc(CSc2nnc(-c3cccnc3)n2Cc2ccco2)c(Cl)c1`: the Potency was inactive: > 76.9 µM.
The result for `CCCCN(CC)C(=O)C1CCC(=O)N(c2ccc(OC)cc2)C1c1ccc(OC)c(OC)c1` (stereo not given) reads inactive: > 76.9 µM; that for `COC(=O)c1sccc1NC(=O)C1C2C=CC(O2)C1C(=O)O` (stereo not given), inactive: > 76.9 µM; that for `COc1cc(NC(=O)c2c(F)cccc2F)nc(OC)n1`, inactive: > 76.9 µM.
Take `CCCOc1ccc(N2C(=O)CC(N3CCC(c4nncn4CC)CC3)C2=O)cc1` (stereo not given): the Potency was inactive: > 76.9 µM.
Turning to `NC(=O)CSC1=Nc2ccccc2C2=NC(CC(=O)NCc3cccs3)C(=O)N12` (stereo not given), the Potency is inactive: > 76.9 µM.
`CCCCSc1nc2c(cnn2-c2ccc(Cl)cc2)c(=O)[nH]1`: the Potency is inactive: > 76.9 µM.
With `O=C(CSc1nnc(-c2ccco2)n1CC1CCCO1)NC1CCCC1` (stereo not given), the Potency is inactive: > 76.9 µM.
With `Cc1c(C(=O)NCc2ccc3c(c2)OCO3)oc2ccc(S(=O)(=O)N3CCC(C)CC3)cc12`, the Potency was inactive: > 76.9 µM.
For the compound `Cc1ccc(CNC(=O)CCc2nc3ccccc3c(=O)[nH]2)cc1`, the Potency was inactive: > 76.9 µM.
The value for `COc1cc(OC)cc(C(=O)NCc2nc(-c3ccccc3)no2)c1` was inactive: > 76.9 µM; that for `O=C(O)CCN1C(=O)NC2(CCCC2)C1=O` was inactive: > 76.9 µM; that for `CC(C)C(c1nnnn1C1CCCC1)N1c2ccccc2CC1C` (stereo not given) was inactive: > 76.9 µM.
As for `O=C(CN1C(=O)c2ccccc2C1=O)Nc1ccc2c(c1)OCO2`, the Potency was inactive: > 76.9 µM.
On to `COC(=O)CCSc1nccn1Cc1ccccc1`, for which the Potency was inactive: > 76.9 µM.
For `COC(=O)CSc1nc2cc(OC)ccc2cc1C#N`, the Potency was inactive: > 76.9 µM.
The value for `COc1ccc(N2C(=O)C3CC(C)=C(C)CC3C2=O)c(OC)c1` (stereo not given) was inactive: > 76.9 µM.
The value for `C[C@H](NC(=O)Nc1ccc2c(c1)OCCO2)C(=O)O` was inactive: > 76.9 µM; that for `COc1ccc(C(=O)N(CN2CCCC2=O)c2cc(C)on2)cc1OC` was inactive: > 76.9 µM; that for `N#CCCN1CCn2c1nc1ccccc12` was inactive: > 76.9 µM.
With `Cc1cccc(-n2ncc3c(Nc4c(C)n(C)n(-c5ccccc5)c4=O)ncnc32)c1`, the Potency is inactive: > 76.9 µM.
Turning to `Cc1ccc(S(=O)(=O)NCCCCC(NC(=O)OC(C)(C)C)C(=O)O)cc1` (stereo not given) (tested in a mixture with another compound), the Potency is inactive: > 76.9 µM.
The result for `COC(=O)c1ccccc1N1C(=O)[C@@H]2C(c3ccc(F)cc3)=NO[C@@H]2C1=O` reads inactive: > 76.9 µM; that for `CC(=O)N1CCC(N(C(=O)Nc2ccc(C)c(C)c2)C2CCCC2)CC1`, inactive: > 76.9 µM.
On to `CCOc1ccccc1C(=O)N1CCC(n2nnc3cc(C)ccc32)CC1`, for which the Potency is inactive: > 76.9 µM.
The result for `COc1cccc(NC(=O)C2CC(=O)N=C(N)S2)c1` (stereo not given) reads inactive: > 76.9 µM.
Consider `CC1CCCCC12NC(=O)N(CC(=O)c1ccc[nH]1)C2=O` (stereo not given), for which the Potency was inactive: > 76.9 µM.
The result for `C=CCn1c(SCC(=O)Nc2c(C)cccc2C)nnc1-c1cnccn1` reads inactive: > 76.9 µM; that for `CCOc1ccc(CNC(=O)C2CCCN(S(C)(=O)=O)C2)cc1OC` (stereo not given), inactive: > 76.9 µM.
The result for `Cc1oc(C(C)(C)C)cc1C(=O)NCC(=O)NCC(=O)O` reads inactive: > 76.9 µM; that for `CCOc1ccc(N2CC(C(=O)Nc3cccc(C)c3C)CC2=O)cc1` (stereo not given), inactive: > 76.9 µM; that for `CCCC1(C(=O)OC)NC(c2cccc(F)c2)C2C(=O)N(CC)C(=O)C21` (stereo not given), inactive: > 76.9 µM.
On to `O=C(Nc1ccc2c(c1)OCO2)N1CCN(S(=O)(=O)c2ccc(Cl)cc2)CC1`, for which the Potency was inactive: > 76.9 µM.
In the case of `CCn1c(SCC(=O)Nc2nc(C)c(C)s2)nnc1-c1ccco1`, the Potency is inactive: > 76.9 µM.
As to `Cc1ccc(-c2cc(-c3ccccc3)c(C#N)c(N)n2)o1`, the Potency is inactive: > 76.9 µM.
In the case of `O=C(OCn1nnc2ccccc2c1=O)C1COc2ccccc2O1` (stereo not given), the Potency was inactive: > 76.9 µM.
For the compound `O=c1cc(N2CCC3(CC2)OCCO3)[nH]c(=O)n1C1CCCCC1`, the Potency is inactive: > 76.9 µM.
On to `Cc1cc(N(C)C)c(C#N)c(N2CCOCC2)n1`, for which the Potency was inactive: > 76.9 µM.
Take `O=C(c1ccco1)N1CCN(C(c2ccccc2Cl)c2nnnn2CC2CCCO2)CC1` (stereo not given): the Potency was inactive: > 76.9 µM.
As to `Cc1ccc(S(=O)(=O)N2CCCC(C(=O)NCCc3ccc4c(c3)OCO4)C2)cc1` (stereo not given), the Potency was inactive: > 76.9 µM.
The value for `COc1ccc(Cl)cc1NC(=O)COC(=O)CCNC(C)=O` was inactive: > 76.9 µM.
Regarding `CCCn1c(SCC(=O)Nc2sc(C)c(C)c2C(=O)OCC)nc2c1c(=O)n(C)c(=O)n2C`, the Potency was inactive: > 76.9 µM.
Consider `Cc1nc(CNS(=O)(=O)c2ccc(Oc3ccccc3)cc2)cs1`, for which the Potency is inactive: > 76.9 µM.
Take `CN1CCCC(OC(=O)COc2ccccc2)C1` (stereo not given): the Potency is inactive: > 76.9 µM.
The result for `Cc1cc(C)n(-c2nc3ccccc3nc2N2CCN(C(=O)c3ccc(Cl)cc3)CC2)n1` reads inactive: > 76.9 µM; that for `COc1ccccc1N1CCN(C(=O)Cn2nnc(-c3cccs3)n2)CC1`, inactive: > 76.9 µM; that for `O=C(c1ccc(F)cc1)N(Cc1ccccc1)C1CCS(=O)(=O)C1` (stereo not given), inactive: > 76.9 µM.
On to `CN(C)c1nc(N)nc(CSc2ncc(Cl)cc2Cl)n1`, for which the Potency is inactive: > 76.9 µM.
As for `N#CCSc1nc2ccc(N3CCCCC3)cc2c(=O)n1Cc1ccccc1`, the Potency is active: 15.2 µM.
The value for `COc1ccc(NC(=O)CCn2nc(C)cc2C)cc1` was inactive: > 76.9 µM; that for `Cc1nc2c(cnn2-c2ccc(Cl)cc2)c(=O)n1-c1ccc2c(c1)OCCO2` was inactive: > 76.9 µM; that for `Cc1nnc(SCC(=O)c2c(N)n(C)c(=O)n(C)c2=O)[nH]c1=O` was inactive: > 76.9 µM.
On to `CN1C(=O)CC2(CC(=O)N(Cc3ccccc3)C2)C1=O` (stereo not given), for which the Potency was inactive: > 76.9 µM.
With `COc1ccccc1N1CCN(C/C(O)=C(\C#N)c2nc(-c3ccccc3)cs2)CC1`, the Potency was inactive: > 76.9 µM.
With `CCC(=O)N1CCc2cc(S(=O)(=O)NCCC(=O)N3CCN(c4ccccn4)CC3)ccc21`, the Potency is inactive: > 76.9 µM.
Consider `COC(=O)c1ccc(NC(=O)C2CCN(S(C)(=O)=O)CC2)cc1`, for which the Potency was inactive: > 76.9 µM.
With `O=C(Nc1ccccc1)N1CCN(c2nc3ccccc3s2)CC1`, the Potency is inactive: > 76.9 µM.
`CCOCCOc1nc2c(c(=O)n(C)c(=O)n2C)n1CCc1ccccc1`: the Potency was inactive: > 76.9 µM.
The value for `COc1ccccc1NC(=O)Nc1ccnn1C1CCCCC1` was inactive: > 76.9 µM.
As to `CCNC(=O)CC(=O)Nc1ccccc1C(=O)O`, the Potency is inactive: > 76.9 µM.
Regarding `CCOC(=O)C1=C(C)Nc2ncnn2C1c1c[nH]c2ccccc12` (stereo not given), the Potency is inactive: > 76.9 µM.
The value for `O=c1cc(Nc2ccc3c(c2)OCCO3)[nH]c(=O)n1-c1ccc(Br)cc1` was inactive: > 76.9 µM; that for `O=C(COc1cccc(C(F)(F)F)c1)Nc1ccc(S(=O)(=O)N2CCCC2)cc1` was inactive: > 76.9 µM.
